Measurements as given in publication PMC9262583.
No constants are given. Whether binding was seen depends on the method and setting. For some of these results: In cells and extracts the contact can be indirect. Some results given as binding are weak or reduced against the parent protein; the word gives no strength. For some of these results: Tags and fused reporters may be left off the sequences shown.

Chains of the proteins cited; added tags and fusions are not shown. Lines headed by an entry give the natural chain unless they say otherwise; changes in a name come on top.
UniProt Q9NFU0: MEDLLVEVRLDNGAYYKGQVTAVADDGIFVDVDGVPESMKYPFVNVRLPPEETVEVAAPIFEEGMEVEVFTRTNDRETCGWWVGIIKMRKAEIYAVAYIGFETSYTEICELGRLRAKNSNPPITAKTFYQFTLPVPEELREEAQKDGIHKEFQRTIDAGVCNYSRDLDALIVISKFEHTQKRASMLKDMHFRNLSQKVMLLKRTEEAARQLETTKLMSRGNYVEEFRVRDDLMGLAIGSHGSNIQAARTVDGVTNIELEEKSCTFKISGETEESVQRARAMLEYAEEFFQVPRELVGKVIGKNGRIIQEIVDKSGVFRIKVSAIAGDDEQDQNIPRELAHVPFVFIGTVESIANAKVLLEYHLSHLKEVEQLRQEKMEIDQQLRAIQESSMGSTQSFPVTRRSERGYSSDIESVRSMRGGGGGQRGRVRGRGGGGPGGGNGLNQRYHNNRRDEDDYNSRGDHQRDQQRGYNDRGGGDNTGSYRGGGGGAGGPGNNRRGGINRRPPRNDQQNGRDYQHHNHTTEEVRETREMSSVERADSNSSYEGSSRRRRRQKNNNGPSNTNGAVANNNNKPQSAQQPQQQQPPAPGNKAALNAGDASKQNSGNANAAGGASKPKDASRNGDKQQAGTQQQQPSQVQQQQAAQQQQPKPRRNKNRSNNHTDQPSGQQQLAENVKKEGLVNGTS

What was measured:
[1] = biological target: T1, His6-qRRM1 of Glo (residues 45–141) (Drosophila) (UniProt Q9VGH5); assay: pull-down; purified His6-qRRMs (50 μg each) immobilised on Ni-NTA agarose, incubated with late-ovary extract expressing GFP-dFMRP for 1.5 h at 4°C; anti-GFP immunoblot; only the target purified
T1 sequence: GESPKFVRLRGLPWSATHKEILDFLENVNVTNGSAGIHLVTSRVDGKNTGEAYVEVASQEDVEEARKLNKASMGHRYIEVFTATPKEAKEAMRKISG

[2] = biological target: T2, His6-qRRM2 of Glo (residues 142–234) (Drosophila) (UniProt Q9VGH5); assay: as above
T2 sequence: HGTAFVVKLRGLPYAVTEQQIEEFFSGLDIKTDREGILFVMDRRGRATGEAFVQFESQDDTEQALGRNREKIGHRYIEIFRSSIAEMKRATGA

[3] = biological target: T3, His6-qRRM3 of Glo (residues 475–562) (Drosophila) (UniProt Q9VGH5); assay: as above
T3 sequence: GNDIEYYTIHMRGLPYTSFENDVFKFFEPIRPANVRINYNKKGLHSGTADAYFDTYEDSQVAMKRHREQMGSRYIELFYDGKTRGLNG

[4] = biological target: T1, His6-qRRM1 of Glo (residues 45–141) (Drosophila); assay: SEC; 2.5 μM ΔNT-dFMRP mixed with 20 μM qRRM domain in 20 mM HEPES-NaOH pH 8.0, 150 mM NaCl, 5 mM TCEP, 48 h at 4°C; Superdex 200 Increase 3.2/300; fractions on Coomassie-stained SDS-PAGE; both purified
[5] = biological target: T2, His6-qRRM2 of Glo (residues 142–234) (Drosophila); assay: as above
[6] = biological target: T3, His6-qRRM3 of Glo (residues 475–562) (Drosophila); assay: as above
[7] = biological target: GFP-tagged dFMRP (GFP-dFMRP) (Drosophila) (UniProt Q9NFU0); assay: co-IP; anti-GFP immunoprecipitation from late-ovary extract in the presence of RNase; immunoblot with anti-dFMRP, anti-Glo or anti-GFP
[8] = biological target: T3, His6-qRRM3 of Glo (residues 475–562) (Drosophila); assay: SEC; each qRRM domain alone at 20 μM in 20 mM HEPES-NaOH pH 8.0, 150 mM NaCl, 5 mM TCEP; Superdex 200 Increase 3.2/300; both purified
[9] = biological target: T1, His6-qRRM1 of Glo (residues 45–141) (Drosophila); assay: as above
[10] = biological target: T2, His6-qRRM2 of Glo (residues 142–234) (Drosophila); assay: as above

GFP-tagged dFMRP (GFP-dFMRP) (from UniProt Q9NFU0 1-684)
binding [1]: no binding | binding [2]: binds | binding [3]: no binding

His6-ΔNT-dFMRP (residues 220–681) (from UniProt Q9NFU0 220-681) (domain or fragment)
binding [4]: no binding (tested: 2.5 μM ΔNT-dFMRP, 20 μM qRRM domain) | binding [5]: binds | binding [6]: no binding (tested: 2.5 μM ΔNT-dFMRP, 20 μM qRRM domain)

B1: Glorund (Glo), endogenous (protein, UniProt Q9VGH5 1-586)
chain: MSNADVQFNYGQQGNGDNFNDDSNQQQDEDDQYNEDGGGKIENVGESPKFVRLRGLPWSATHKEILDFLENVNVTNGSAGIHLVTSRVDGKNTGEAYVEVASQEDVEEARKLNKASMGHRYIEVFTATPKEAKEAMRKISGHGTAFVVKLRGLPYAVTEQQIEEFFSGLDIKTDREGILFVMDRRGRATGEAFVQFESQDDTEQALGRNREKIGHRYIEIFRSSIAEMKRATGAGGGVGGRPGPYDIRDRGANRGGNDFGGGRNDWGNNGNFGVGANNMLGFNNLPSLMNSGNFGNNQGGNNGNFGNNSGPSNFGNFGGGNNGGNSGNFGNDSGNSGNFGNFGNNGGGNFGGNNNGGGGFNSGNNFNSPGGVNNFGNNGGSNFGGNGGGGFNNGGNFVSSSGVGNFGPIGGGRNNNNGNFGNSGFGNFGGNNNVGSNFGGGNNGGGGGFNNGSNFGGGNSMGGGGNFGPIGGGRGNDIEYYTIHMRGLPYTSFENDVFKFFEPIRPANVRINYNKKGLHSGTADAYFDTYEDSQVAMKRHREQMGSRYIELFYDGKTRGLNGGEHGGGNGGGGMGNNGGGNFSRRI
binding [7]: binds

B2: His6-qRRM3 of Glo (residues 475–562) (domain or fragment, UniProt Q9VGH5 475-562)
chain: GNDIEYYTIHMRGLPYTSFENDVFKFFEPIRPANVRINYNKKGLHSGTADAYFDTYEDSQVAMKRHREQMGSRYIELFYDGKTRGLNG
binding [8]: no binding (tested: 20 μM)

B3: His6-qRRM1 of Glo (residues 45–141) (domain or fragment, UniProt Q9VGH5 45-141)
chain: GESPKFVRLRGLPWSATHKEILDFLENVNVTNGSAGIHLVTSRVDGKNTGEAYVEVASQEDVEEARKLNKASMGHRYIEVFTATPKEAKEAMRKISG
binding [9]: no binding (tested: 20 μM)

B4: His6-qRRM2 of Glo (residues 142–234) (domain or fragment, UniProt Q9VGH5 142-234)
chain: HGTAFVVKLRGLPYAVTEQQIEEFFSGLDIKTDREGILFVMDRRGRATGEAFVQFESQDDTEQALGRNREKIGHRYIEIFRSSIAEMKRATGA
binding [10]: no binding (tested: 20 μM)
